Measurements: publication PMC6120582

Biological target: eIF2B(βγδε) heterotetramer with δL179V (human), P49770

B1: eIF2B(βγδε) heterotetramer with δL179V (complex)
chain 1: MPGSAAKGSELSERIESFVETLKRGGGPRSSEEMARETLGLLRQIITDHRWSNAGELMELIRREGRRMTAAQPSETTVGNMVRRVLKIIREEYGRLHGRSDESDQQESLHKLLTSGGLNEDFSFHYAQLQSNIIEAINELLVELEGTMENIAAQALEHIHSNEVIMTIGFSRTVEAFLKEAARKRKFHVIVAECAPFCQGHEMAVNLSKAGIETTVMTDAAIFAVMSRVNKVIIGTKTILANGALRAVTGTHTLALAAKHHSTPLIVCAPMFKLSPQFPNEEDSFHKFVAPEEVLPFTEGDILEKVSVHCPVFDYVPPELITLFISNIGGNAPSYIYRLMSELYHPDDHVL
chain 2: MEFQAVVMAVGGGSRMTDLTSSIPKPLLPVGNKPLIWYPLNLLERVGFEEVIVVTTRDVQKALCAEFKMKMKPDIVCIPDDADMGTADSLRYIYPKLKTDVLVLSCDLITDVALHEVVDLFRAYDASLAMLMRKGQDSIEPVPGQKGKKKAVEQRDFIGVDSTGKRLLFMANEADLDEELVIKGSILQKHPRIRFHTGLVDAHLYCLKKYIVDFLMENGSITSIRSELIPYLVRKQFSSASSQQGQEEKEEDLKKKELKSLDIYSFIKEANTLNLAPYDACWNACRGDRWEDLSRSQVRCYVHIMKEGLCSRVSTLGLYMEANRQVPKLLSALCPEEPPVHSSAQIVSKHLVGVDSLIGPETQIGEKSSIKRSVIGSSCLIKDRVTITNCLLMNSVTVEEGSNIQGSVICNNAVIEKGADIKDCLIGSGQRIEAKAKRVNEVIVGNDQLMEI
chain 3: not shown
chain 4: MAAPVVAPPGVVVSRANKRSGAGPGGSGGGGARGAEEEPPPPLQAVLVADSFDRRFFPISKDQPRVLLPLANVALIDYTLEFLTATGVQETFVFCCWKAAQIKEHLLKSKWCRPTSLNVVRIITSELYRSLGDVLRDVDAKALVRSDFLLVYGDVISNINITRALEEHRLRRKLEKNVSVMTMIFKESSPSHPTRCHEDNVVVAVDSTTNRVLHFQKTQGLRRFAFPLSLFQGSSDGVEVRYDLLDCHISICSPQVAQLFTDNFDYQTRDDFVR[about 20 residues not printed]VSNLHMYSAVCADVIRRWVYPLTPEANFTDSTTQSCTHSRHNIYRGPEVSLGHGSILEENVLLGSGTVIGSNCFITNSVIGPGCHIGDNVVLDQTYLWQGVRVAAGAQIHQSLLCDNAEVKERVTLKPRSVLTSQVVVGPNITLPEGSVISLHPPDAEEDEDDGEFSDDSGADQEKDKVKMKGYNPAEVGAAGKGYLWKAAGMNMEEEEELQQNLWGLKINMEEESESESEQSMDSEEPDSRGGSPQMDDIKVFQNEVLGTLQRGKEENISCDNLVLEINSLKYAYNISLKEVMQVLSHVVLEFPLQQMDSPLDSSRYCALLLPLLKAWSPVFRNYIKRAADHLEALAAIEDFFLEHEALGISMAKVLMAFYQLEILAEETILSWFSQRDTTDKGQQLRKNQQLQRFIQWLKEAEEESSEDD
- GEF activity of eIF2B(βγδε) containing δL179V, with ISRIB: 0.024 min⁻¹
- GEF activity of eIF2B(βγδε) containing δL179V, without ISRIB: 0.027 min⁻¹
